From the supplement of paper PMC9938546 come the findings set out here.

Where a name gives a salt, the structure may show the parent alone. The list shows a part of the results. Most values come without repeats; read them as rough.
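Further: viability estimated indirectly by image-based GFP quantification with live-cell imaging of the constitutively GFP-expressing human colorectal cancer line, no immune cells added.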

The experiment concerns HCT116-GFP. Put plainly: HCT116-GFP viability (GFP intensity) relative to untreated control, monoculture; higher = less cancer cell killing. To be noted: culture: HCT116-GFP monoculture; 10 µM; 72 h.
Consider `Cc1nccn1CC1CCc2c(c3ccccc3n2C)C1=O` (stereo not given) [Ondansetron Hydrochloride], for which the HCT116-GFP viability was determined as 95.8%.

Take `COc1ccc2c(c1)c(CC(=O)OCC(=O)O)c(C)n2C(=O)c1ccc(Cl)cc1` [Acemetacin]: the HCT116-GFP viability came to 93.6%.

Regarding `CCCCC1C(=O)N(c2ccccc2)N(c2ccccc2)C1=O` [Phenylbutazone], the HCT116-GFP viability was determined as 85.9%.

Consider `CCCCOC(=O)c1ccc(O)cc1` [Butylparaben], for which the HCT116-GFP viability was determined as 92%.

For `CCCc1nc2c(C)cc(-c3nc4ccccc4n3C)cc2n1Cc1ccc(-c2ccccc2C(=O)O)cc1` [Telmisartan], the HCT116-GFP viability was found to be 89.1%.

Regarding `N=C(N)N1CCc2ccccc2C1` [Debrisoquin sulfate], the HCT116-GFP viability was determined as 107%.

In the case of `CC(=O)/N=c1/sc(S(N)(=O)=O)nn1C` [Methazolamide], the HCT116-GFP viability turned out to be 86.6%.

As for `COCCCOc1ccnc(C[S+]([O-])c2nc3ccccc3[nH]2)c1C` (stereo not given) [Rabeprazole Sodium salt], the HCT116-GFP viability came to 95.8%.

Turning to `O=C(O)Cc1cc(I)c(Oc2ccc(O)c(I)c2)c(I)c1` [Tiratricol, 3,3',5-triiodothyroacetic acid], the HCT116-GFP viability came out at 67%.

On to `CNCC[C@@H](Oc1ccccc1C)c1ccccc1` [Tomoxetine hydrochloride], for which the HCT116-GFP viability amounted to 127%.

For the molecule `O=C(CCCCC(=O)Nc1c(I)cc(I)c(C(=O)O)c1I)Nc1c(I)cc(I)c(C(=O)O)c1I` [Iodipamide], the HCT116-GFP viability came out at 101%.

Regarding `Cc1c(F)c(N2CCNC(C)C2)cc2c1c(=O)c(C(=O)O)cn2C1CC1` (stereo not given) [Grepafloxacin], the HCT116-GFP viability is 91.2%.

`CC(=O)OCC(=O)[C@@]12OC3(CCCC3)O[C@@H]1C[C@H]1[C@@H]3CCC4=CC(=O)C=C[C@]4(C)[C@@]3(F)[C@@H](O)C[C@@]12C` [Amcinonide]: the HCT116-GFP viability turned out to be 96.5%.

In the case of `N=C(N=C(N)N)N1CCOCC1` [Moroxidine hydrochloride], the HCT116-GFP viability was determined as 119%.

As to `CCCC(=O)Nc1ccc(OCC(O)CNC(C)C)c(C(C)=O)c1` (stereo not given) [Acebutolol hydrochloride], the HCT116-GFP viability was 91%.

`CN1[C@@H]2CC[C@H]1C[C@@H](OC(c1ccccc1)c1ccccc1)C2` [Benztropine mesylate]: the HCT116-GFP viability came to 102%.

As for `CC(=O)Nc1ccc(OCC(O)CNC(C)C)cc1` (stereo not given) [Practolol], the HCT116-GFP viability was 100%.

Take `O=C(Nc1ccccc1)OCC(CN1CCCCC1)OC(=O)Nc1ccccc1` (stereo not given) [Diperodon hydrochloride]: the HCT116-GFP viability was found to be 99.3%.

`Cc1ccc(C)c(OCCCC(C)(C)C(=O)O)c1` [Gemfibrozil]: the HCT116-GFP viability stood at 101%.

As for `O=C(CCCN1CCC(O)(c2ccc(Cl)cc2)CC1)c1ccc(F)cc1` [Haloperidol], the HCT116-GFP viability was determined as 89.9%.

Regarding `NC(=O)c1ccc[n+]([C@@H]2O[C@H](COP(=O)([O-])OP(=O)(O)OC[C@H]3O[C@@H](n4cnc5c(N)ncnc54)[C@H](O)[C@@H]3O)[C@@H](O)[C@H]2O)c1` [Nadide], the HCT116-GFP viability was found to be 99.8%.

With `CNCCC=C1c2ccccc2C=Cc2ccccc21` [Norcyclobenzaprine], the HCT116-GFP viability amounted to 78.8%.

On to `NC(=O)OCC(O)COc1ccc(Cl)cc1` (stereo not given) [Chlorphensin carbamate], for which the HCT116-GFP viability was found to be 107%.

On to `COCCOC(=O)C1=C(C)NC(C)=C(C(=O)OC(C)C)C1c1cccc([N+](=O)[O-])c1` (stereo not given) [Nimodipine], for which the HCT116-GFP viability amounted to 102%.

As for `CN1C(C(=O)Nc2ccccn2)=C(O)c2ccccc2S1(=O)=O` [Piroxicam], the HCT116-GFP viability amounted to 93.1%.

In the case of `COC(=O)CCc1ccc(OCC(O)CNC(C)C)cc1` (stereo not given) [Esmolol hydrochloride], the HCT116-GFP viability was determined as 122%.

Consider `C[C@]12CCC(=O)C=C1C=C[C@@H]1[C@@H]2CC[C@@]2(C)[C@H]1CC[C@@]21CCC(=O)O1` [Canrenone], for which the HCT116-GFP viability was 108%.

Take `COc1cccc(N(C)C(=S)Oc2ccc3c(c2)CCCC3)n1` [Liranaftate]: the HCT116-GFP viability is 136%.

Regarding `CCCNC(C)C(=O)Nc1c(C)csc1C(=O)OC` (stereo not given) [Articaine hydrochloride], the HCT116-GFP viability is 88.7%.

In the case of `NCCc1cc[nH]n1` [Betazole hydrochloride], the HCT116-GFP viability stood at 87.1%.

Consider `Cc1c(NC(C)C)c(=O)n(-c2ccccc2)n1C` [Isopyrin hydrochloride], for which the HCT116-GFP viability amounted to 109%.

Turning to `CC(C[N+](C)(C)C)OC(N)=O` (stereo not given) [Bethanechol chloride], the HCT116-GFP viability is 99.7%.

As to `NS(=O)(=O)Cc1noc2ccccc12` [Zonisamide], the HCT116-GFP viability stood at 100%.

In the case of `CN(C)CCN(Cc1ccc(Cl)cc1)c1ccccn1` [Chloropyramine hydrochloride], the HCT116-GFP viability was found to be 83.4%.

Regarding `COc1ccc2c(c1)C(=O)N(CCc1ccc(S(=O)(=O)NC(=O)NC3CCCCC3)cc1)C(=O)C2(C)C` [Gliquidone], the HCT116-GFP viability was 92.2%.

For the molecule `COc1ccc([C@@H]2Sc3ccccc3N(CCN(C)C)C(=O)[C@@H]2OC(C)=O)cc1` [Diltiazem hydrochloride], the HCT116-GFP viability came out at 104%.

As for `Cc1cn([C@H]2C[C@H](N=[N+]=[N-])[C@@H](CO)O2)c(=O)[nH]c1=O` [Zidovudine, AZT], the HCT116-GFP viability came to 76.2%.

Consider `CN(C)c1cc(NC(=O)CNC(C)(C)C)c(O)c2c1C[C@H]1C[C@H]3[C@H](N(C)C)C(O)=C(C(N)=O)C(=O)[C@@]3(O)C(O)=C1C2=O` [Tigecycline], for which the HCT116-GFP viability was found to be 101%.

As for `COc1cc(NS(=O)(=O)c2ccc(N)cc2)nc(OC)n1` [Sulfadimethoxine], the HCT116-GFP viability is 127%.

For the molecule `CC[N+](CC)(CC(=O)Nc1c(C)cccc1C)Cc1ccccc1` [Denatonium benzoate], the HCT116-GFP viability stood at 95.7%.

On to `CC1(C)O[C@@H]2[C@@H](CO[C@@]3(COS(N)(=O)=O)OC(C)(C)O[C@@H]23)O1` [Topiramate], for which the HCT116-GFP viability was determined as 102%.

`Cc1cccc(Nc2ccncc2S(=O)(=O)NC(=O)NC(C)C)c1` [Torsemide]: the HCT116-GFP viability is 109%.

On to `NC(=O)N1c2ccccc2CC(=O)c2ccccc21` [Oxcarbazepine], for which the HCT116-GFP viability worked out at 88.3%.

Consider `CC(C)Cn1cnc2c(N)nc3ccccc3c21` [Imiquimod], for which the HCT116-GFP viability was 93.6%.

`CC(C)NC(=N)NC(=N)Nc1ccc(Cl)cc1` [Proguanil hydrochloride]: the HCT116-GFP viability was found to be 82.9%.

For the molecule `COc1ccc2c3c1O[C@H]1C[C@@H](O)C=C[C@@]31CCN(C)C2` [Galanthamine hydrobromide], the HCT116-GFP viability was found to be 99.6%.

`O=c1[nH]c(=O)n([C@H]2C[C@H](O)[C@@H](CO)O2)cc1C(F)(F)F` [Trifluridine]: the HCT116-GFP viability amounted to 32%.

In the case of `Cc1nnc(SCC2=C(C(=O)O)N3C(=O)[C@@H](NC(=O)Cn4cnnn4)[C@H]3SC2)s1` [Cefazolin sodium salt], the HCT116-GFP viability was found to be 120%.

`S=c1[nH]cnc2nc[nH]c12` [Mercaptopurine]: the HCT116-GFP viability was 45.2%.

As to `CCCCCCCCNC(C)C(O)c1ccc(SC(C)C)cc1` (stereo not given) [Suloctidil], the HCT116-GFP viability turned out to be 17.9%.
